Here are results for 86 molecules from article PMC4336329 (PLoS ONE, 2015).

Structures are written as SMILES. In all, about 310,000 compounds went through this assay and about 2,200 (0.71%) showed an effect of 50% or more. Effects have a minus sign here. This is one part of the list.

Chain of human ether-à-go-go-related gene (hERG) potassium channel (Q12809 whole entry, looked up): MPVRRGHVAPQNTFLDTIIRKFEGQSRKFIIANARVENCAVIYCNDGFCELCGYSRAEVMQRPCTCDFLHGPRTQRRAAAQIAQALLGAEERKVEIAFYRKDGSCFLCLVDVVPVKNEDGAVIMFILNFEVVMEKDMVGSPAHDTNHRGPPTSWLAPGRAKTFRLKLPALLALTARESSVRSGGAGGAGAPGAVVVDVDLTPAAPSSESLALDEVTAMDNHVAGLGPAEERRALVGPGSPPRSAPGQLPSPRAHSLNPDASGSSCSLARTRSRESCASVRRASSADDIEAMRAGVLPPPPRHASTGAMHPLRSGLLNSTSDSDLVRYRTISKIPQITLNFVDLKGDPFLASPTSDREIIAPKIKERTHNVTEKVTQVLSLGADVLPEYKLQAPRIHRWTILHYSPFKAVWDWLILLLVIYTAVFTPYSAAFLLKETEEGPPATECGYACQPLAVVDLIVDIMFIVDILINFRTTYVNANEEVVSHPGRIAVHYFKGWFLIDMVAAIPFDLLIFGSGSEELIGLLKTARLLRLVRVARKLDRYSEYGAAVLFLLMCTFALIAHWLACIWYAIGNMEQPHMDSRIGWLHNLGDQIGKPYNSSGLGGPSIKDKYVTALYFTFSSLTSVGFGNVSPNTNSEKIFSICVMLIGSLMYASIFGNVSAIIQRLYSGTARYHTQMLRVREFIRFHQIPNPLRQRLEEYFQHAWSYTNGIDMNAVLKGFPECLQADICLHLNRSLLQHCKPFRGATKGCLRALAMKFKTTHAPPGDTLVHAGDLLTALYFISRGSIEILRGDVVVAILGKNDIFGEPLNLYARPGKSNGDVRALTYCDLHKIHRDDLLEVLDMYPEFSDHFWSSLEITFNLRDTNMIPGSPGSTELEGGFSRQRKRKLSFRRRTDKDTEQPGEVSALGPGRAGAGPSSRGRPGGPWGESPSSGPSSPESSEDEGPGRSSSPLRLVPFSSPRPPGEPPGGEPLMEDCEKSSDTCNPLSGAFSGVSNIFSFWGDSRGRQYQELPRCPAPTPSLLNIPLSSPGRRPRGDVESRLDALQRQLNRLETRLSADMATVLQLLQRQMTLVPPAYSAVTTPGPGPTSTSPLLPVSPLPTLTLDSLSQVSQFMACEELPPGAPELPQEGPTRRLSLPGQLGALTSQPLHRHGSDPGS

This experiment concerns the target human ether-à-go-go-related gene (hERG) potassium channel (human, UniProt Q12809). The experiment in a line: primary screen, population patch clamp on CHO cells stably expressing hERG.
Consider `Cc1cc2c(cc1C)NC1=C(N2)OC(c2cccc(O)c2)C1=O` (centres unmarked), for which the “hERG current change (%, negative = inhibition) at 1uM” value was 5.62%.
In the case of `CCN(c1ccccc1)S(=O)(=O)c1cc(NC(=O)COC(=O)C2CC2)ccc1Cl`, the “hERG current change (%, negative = inhibition) at 1uM” value came to 8.17%.
The figure for `CC(C)(CSc1ncccn1)NS(=O)(=O)c1ccccc1` is 12.9%; for `Nc1c2c(nc3ccccc13)N(C1CCCCC1)CC2` it is -16.7%.
The figure for `O=c1oc2ccccc2cc1-c1csc(Nc2nc3c(F)cccc3s2)n1` is 0.573%.
The figure for `COc1ccc(C(C)=O)cc1COC(=O)c1ccc2ccccc2n1` is 5.79%; for `N#Cc1cccc(-n2nnnc2-c2ccccn2)c1` it is 9.31%; for `Cc1ccc(/C=C/C(=O)NCC2COc3ccccc3O2)o1` (centres unmarked) it is -4.46%.
Consider `O=C(NCC1CCCO1)c1ccccc1-c1nc(-c2ccccc2)no1` (centres unmarked), for which the “hERG current change (%, negative = inhibition) at 1uM” value is given as -9.39%.
In the case of `Cc1cccc(/C(N)=N/OC(=O)C23CC4CC(CC(C4)C2)C3)c1` it was -3.34%; in that of `COC(=O)C1=C(CS(=O)(=O)c2ccccc2)NC(=O)NC1c1ccccc1` (centres unmarked), 11.4%; in that of `COP(=O)(OC)C(NC(=O)/C=C/c1ccccc1)C(Cl)(Cl)Cl` (centres unmarked), 12.4%.
In the case of `CC[C@@H](C)C(NC(=O)OC(C)(C)C)c1cn([C@@H](Cc2cc3ccccc3[nH]2)C(=O)N2CCN(C(=O)OC(C)(C)C)CC2)nn1` (some centres unmarked) it was 6.71%; in that of `COc1cc(/C=C/C(=O)N2CCCC2)cc(OC)c1OC`, -2%; in that of `CCOc1ccc(S(=O)(=O)Nc2cccc(C(=O)N3CC(C)OC(C)C3)c2)cc1` (centres unmarked), 15.1%.
The figure for `Cc1cccc2c1N(CCOc1ccc(C(C)(C)C)cc1)C(=O)C2=O` is -3.99%; for `CCOc1ccc(CNC(=S)N/N=C\c2ccc([N+](=O)[O-])cc2)cc1` it is 7.59%.
As to `O=C(CSc1nc(=O)n(CCN2CCOCC2)c2c1CCC2)Nc1ccc(OC(F)(F)F)cc1`, the “hERG current change (%, negative = inhibition) at 1uM” value is -40.2%.
The figure for `COc1ccc(C2c3[nH]c4ccccc4c3CCN2CCCn2cccn2)c(C)c1C` (centres unmarked) is 5.59%; for `O=C(c1ccc(Cn2cc(Cl)cn2)cc1)N1CCN(c2ccccc2)CC1` it is -11.4%.
The figure for `O=C(CNC(=O)c1ccccc1)NCc1nc2ccccc2[nH]1` is 13%.
The figure for `Cc1c(C(=O)N2CCCCC2)c(S(=O)(=O)Nc2cccc(Br)c2)c(C)n1C` is -2.16%.
Turning to `Cc1cccc(N2CCN(S(=O)(=O)c3ccc4c(c3)OCCO4)CC2)c1C`, the “hERG current change (%, negative = inhibition) at 1uM” value was -3.64%.
The figure for `CCOC(=O)c1sc(NC(=O)c2cccc(S(=O)(=O)N3CCN(C)CC3)c2)cc1C` is -0.248%; for `CCOC(=O)c1c(C)n(CC(O)CN(C)C)c2cc(Br)c(OC)cc12.Cl` (centres unmarked) it is -9.5%.
Take `COc1ccc2oc3cc(C)[n+]([O-])c(-c4ccc(Cl)cc4)c3c2c1`: the “hERG current change (%, negative = inhibition) at 1uM” value is listed as -0.0212%.
In the case of `COc1ccc(CNc2oc(COc3ccccc3Cl)nc2C#N)cc1` it was 4.22%.
The figure for `CC1CN(C(=O)C(C)OC(=O)c2ccc3ncsc3c2)CC(C)O1` (centres unmarked) is 17.9%.
Take `CC1CN(CCn2cnc3c(N)ncnc32)CC(C)O1` (centres unmarked): the “hERG current change (%, negative = inhibition) at 1uM” value turned out to be 11.3%.
In the case of `CCOc1cc(/C=C2\NC(=S)N(c3c(C)n(C)n(-c4ccccc4)c3=O)C2=O)ccc1O` it was -1.6%; in that of `O=C(Nc1cccnc1)c1cc(F)c(F)cc1Cl`, 6.27%.
Take `CCOc1cc(CNCCCN2CCOCC2)cc(Br)c1OCC(=O)Nc1cccc(C(F)(F)F)c1.Cl`: the “hERG current change (%, negative = inhibition) at 1uM” value is -18.8%.
The figure for `CN1C(C(=O)Nc2ccc(OC(F)(F)F)cc2)=CC(c2cccs2)=NS1(=O)=O` is 6.6%; for `Cc1ccc(S(=O)(=O)CC(=O)Nc2ccc(F)c(F)c2F)cc1` it is 14.1%.
In the case of `CC(NC(=O)c1ccc2ccccc2n1)c1ccccc1` (centres unmarked) it was 7.53%; in that of `CC(=O)/C(=N\Nc1ccc(C)cc1)N1CCOCC1`, 13%; in that of `Cc1cccc(NC(=O)c2cc(=O)n(Cc3ccccc3)c(=O)[nH]2)c1`, 6.93%.
Regarding `COc1cc(C2/C(=C(/O)c3ccc(OCC(C)C)cc3)C(=O)C(=O)N2CCN(C)C)ccc1O` (centres unmarked), the “hERG current change (%, negative = inhibition) at 1uM” value amounted to 5.59%.
For `COc1cccc(C(CC(=O)NCc2ccco2)NS(=O)(=O)c2ccc(C)cc2)c1OC` (centres unmarked), the “hERG current change (%, negative = inhibition) at 1uM” value is given as -6.35%.
In the case of `CCOc1ccc(CN2CCC(Cc3ccccc3)CC2)cc1` it was -76.8%; in that of `Cc1ccc(C(=O)N2CCN(c3ccccc3Cl)CC2)cc1[N+](=O)[O-]`, 12.9%; in that of `O=C(COc1ccccc1)NCC(=O)Nc1cccc(S(=O)(=O)NC2=NCCC2)c1`, -1.23%.
In the case of `Cc1ccc(-n2c(O)c(C=NCCN(C)C)c(=O)[nH]c2=O)cc1` it was 19.5%; in that of `Cc1c(C)n(C)c2ccc(C(=O)Nc3cccc4ccccc34)cc12`, 14.6%; in that of `O=C(NCc1ccccc1F)C1CCCN1C(=O)NC1CCCCC1` (centres unmarked), -11.5%.
For the molecule `COC(=O)C(NNc1ccccc1C)(NC(=O)c1ccc(F)cc1)C(F)(F)F` (centres unmarked), the “hERG current change (%, negative = inhibition) at 1uM” value was 9.79%.
In the case of `Cc1nnc(NC(=O)CN2CCN(Cc3ccccc3)CC2)s1` it was 13.6%; in that of `Oc1ccccc1Cc1c(O)ccc2ccccc12`, 10.9%.
The figure for `CCc1cccc(CC)c1NC(=S)NCc1ccc2c(c1)OCO2` is 4.09%.
The figure for `CC(C)[C@H](NC(=O)OC(C)(C)C)C(=O)N/N=C/c1cccc2nccnc12` is -0.153%.
For `COc1ccccc1CCC(=O)Nc1cc(S(=O)(=O)N2CCOCC2)ccc1N1CCCC1`, the “hERG current change (%, negative = inhibition) at 1uM” value was -4.33%.
On to `CCOC(=O)c1ccc(S(=O)(=O)N2CCN(CC(=O)NC(=O)NC(C)(C)C)CC2)cc1`, for which the “hERG current change (%, negative = inhibition) at 1uM” value was determined as 11.2%.
Regarding `O=C(NNS(=O)(=O)c1ccccc1C(F)(F)F)c1cc2ncc(C(F)(F)F)cc2s1`, the “hERG current change (%, negative = inhibition) at 1uM” value was 19.1%.
In the case of `COC(=O)c1ccc2c(c1)N(Cc1ccccc1F)C(=O)c1ccccc1S2=O` (centres unmarked) it was 17.3%; in that of `O=C(Cc1csc(N2CCOCC2)n1)N/N=C/c1ccc(Cl)cc1Cl`, -0.0298%.
The figure for `CCCNC(=O)CN(c1cccc(F)c1)S(C)(=O)=O` is 3.53%; for `CC1CCCN(CCCNC(=O)CN2C(=O)COc3ccc(S(=O)(=O)N4CCOCC4)cc32)C1` (centres unmarked) it is 14.1%.
For `COc1ccc(S(=O)(=O)Cc2ccc(C(=O)NC3CCCC3)o2)cc1`, the “hERG current change (%, negative = inhibition) at 1uM” value amounted to 1.69%.
The figure for `CCOc1ccc(NC2OC(C)C(O)C(O)C2O)c([N+](=O)[O-])c1` (centres unmarked) is 14.5%; for `COc1ccc(N=C2C(=Nc3ccc(OC)cc3)N(c3ccc(OC)cc3)C(=S)N2c2ccccc2)cc1` it is 12.7%.
The figure for `CCOc1ccc(C(=O)NCC2CCCN2S(=O)(=O)c2cccs2)cc1` (centres unmarked) is 10.6%; for `CCN1CCc2nc(NC(=O)CC(c3ccccc3)c3ccccc3)sc2C1` it is 6.48%; for `COc1ccc([C@H]2C=C(C(=O)O)O[C@@H](OCc3ccc(CO)cc3)C2)cc1` it is 16.4%.
In the case of `CN1OC(CC(=O)O)N(c2ccc(Cl)cc2)C1=O` (centres unmarked) it was 16.4%; in that of `COc1ccc(OC)c(C2CC(=O)c3c([nH]c(C(=O)OC(C)C)c3C)C2)c1` (centres unmarked), 4.74%.
As to `Cc1ccc(-c2nnn(CC(=O)N(Cc3ccco3)C(C(=O)NC3CCCC3)c3cccs3)n2)o1` (centres unmarked), the “hERG current change (%, negative = inhibition) at 1uM” value worked out at 15.2%.
With `Cc1cc2oc(C(=O)N3CCN(Cc4ccccc4)CC3)c(C)c2cc1C`, the “hERG current change (%, negative = inhibition) at 1uM” value is on record as 7.53%.
In the case of `CC(C)Oc1ccc(CNCC2(O)CCOC(C)(C)C2)cc1` (centres unmarked) it was 11.2%.
In the case of `CCOc1ccc(N2CC(C(=O)Nc3ccc(F)cc3F)CC2=O)cc1` (centres unmarked) it was 8.2%.
As to `CCc1ccc(CN(C)Cc2nc(Cc3cccc(C(F)(F)F)c3)no2)nc1`, the “hERG current change (%, negative = inhibition) at 1uM” value came to 10.3%.
The figure for `Cc1cccc(C)c1OCC(=O)Nc1ccc(NC(=O)c2ccco2)cc1` is 9.92%.
As for `Cc1cccc(-n2c(SCC(N)=O)nnc2-c2ccco2)c1`, the “hERG current change (%, negative = inhibition) at 1uM” value is recorded as 4.74%.
Consider `Cc1ccccc1N=CC1=C(O)c2ccccc2C1=O`, for which the “hERG current change (%, negative = inhibition) at 1uM” value is 6.54%.
For `N#CCCN(Cc1cccnc1)C(=S)Nc1ccc(OC(F)F)cc1`, the “hERG current change (%, negative = inhibition) at 1uM” value is listed as -30.8%.
As for `O=c1cc(CN2CCN(c3ccc(F)cc3)CC2)c2cc3c(cc2o1)CCCC3`, the “hERG current change (%, negative = inhibition) at 1uM” value was 13.5%.
The figure for `O=C(COc1cccc(NC(=O)c2cccs2)c1)c1ccc(F)cc1` is 5.77%; for `O=C(CSc1ncnc2c1cnn2-c1ccccc1)NCC1CCCO1` (centres unmarked) it is 0.396%.
In the case of `N#CCc1nc2n(n1)Cc1ccccc1-2` it was -0.58%; in that of `O=C(c1cc2cc(Cl)ccc2[nH]1)N1CCc2ccccc2C1`, 16.9%.
Consider `O=C(CSc1nnc(-c2ccncc2)n1CCc1ccccc1)N1CCCC1`, for which the “hERG current change (%, negative = inhibition) at 1uM” value came out at 14.1%.
The figure for `CN(C)S(=O)(=O)N(CC(=O)Nc1ccc(S(=O)(=O)N2CCCC2)cc1)c1ccccc1` is -12.6%; for `c1ccc(-c2nnc(C3CC(c4cccnc4)=NO3)o2)cc1` (centres unmarked) it is 11.1%.
`COc1ccccc1-c1nnc(SCC(=O)Nc2ccccc2)o1`: the “hERG current change (%, negative = inhibition) at 1uM” value was found to be 2.87%.
On to `CCCCCCCCc1nc(SC(C)C(=O)O)n[nH]1` (centres unmarked), for which the “hERG current change (%, negative = inhibition) at 1uM” value was found to be 7.12%.
Consider `O=C(Nc1cccc(Br)c1)c1ccc(CN2CCc3ccccc3C2)cc1`, for which the “hERG current change (%, negative = inhibition) at 1uM” value is on record as 6.53%.
In the case of `COC(=O)c1cc(-c2ccc(OC)cc2)nc2nc(SC)[nH]c(=O)c12`, the “hERG current change (%, negative = inhibition) at 1uM” value was 11.5%.
